Among all 43,000 compounds or so, about 200 (0.47%) were called active. The shares of active, inactive and inconclusive entries below differ from those in the screen. Calls follow the shape of the dose curve; as a rule, active = well fitted cell-killing curve with a large enough effect; inconclusive = small, poorly fitted or top-dose-only effect, or effect the other way; inactive = flat fitted curve, though single readings scatter. Potencies beside an inconclusive call are fits to weak or partial responses and may not hold up.
assay: Cell viability qHTS assay in S16 Pmp22-F2sN cells; conditions: S16 Pmp22-F2sN Schwann cells (luciferase reporters placed in the Pmp22 gene) viability, CellTiter-Glo, 24 h; activity change, negative = cytotoxicity: at 57.5 µM (top of the series); also: nearly all actives have a fitted effect of over 65% in size
Text: Assay Provider: Jim Inglese Ph.D. National Center for Advancing Translational Science, National Institutes of Health, Rockville, MD CMT is a heterogeneous group of neurological disorders that affect approximately 1 in 2,500 people. In particular, the most common form of CMT, CMT1A is genetically linked to the duplication of the PMP22 gene which leads to Schwann cell overexpression, thus manifesting itself as a typical case of dose-sensitive diseases. To identify small molecule compounds that can mediate the expression of PMP22 we developed a phenotypic assay screening strategy by utilizing genome editing techniques to construct Schwann cell lines containing novel reporter technology to monitor the transcriptional or translational regulation of PMP22. For high sensitivity we use a bioluminescent reporter system embedded in the 3' UTR of the PMP22 gene (S16(c9) Pmp22-F2sN) to identify compounds that inhibit gene expression. […] We can further discriminate the effect of all transcriptionally active molecules on PMP22 translation or stability with an assay that incorporates a short NLuc peptide (HiBiT) at the C-terminus of expressed PMP22 (S16(f8) PMP22-HiBiT) allowing alpha complementation and luminescence detection of membrane-associated PMP22 protein. These assays were screened against the NCATS Sytravon Library Collection. Miniaturization of these assays to 1536-well plate format for quantitative high throughput screening (qHTS) yielded rich data sets immediately from the qHTS assay (S16(c9) Pmp22-F2sN), when compared with data from a cell viability assay (Cell TiterGlo) to identify compounds that decreased the output signals through cellular toxicity to streamline the selection process of actives for subsequent characterization using the HiBiT assay (S16(f8) PMP22-HiBiT).
Cell viability assay in S16 Pmp22-F2sN cells PROTOCOL TABLE (format as described by Inglese J, Shamu CE and Guy RK. 2007) SEQUENCE No. (e.g., 1, 2, 3, etc.); […] (e.g., Cells, Incubation, Reagent, etc.); VALUE and DESCRIPTION. 1. Cells. Add 500-1,000 cells in 4 uL in growth media (DMEM High Glucose, No Phenol Red media + 10% heat-inactivated FBS + 1% Pen/Strep supplemented media) per well into Greiner 1536-well white/solid bottom high base, TC-treated plates. 2. Compounds. Library compounds and controls added at 23nL per well, transferred by Pin Tool. 3. Incubation. Incubate plates at 37C, 5% CO2, 95% RH for 24 h. 4. Reagent. Add 3uL CellTiter-Glo per well of Greiner 1536-well plates. 5. Incubation. Incubate plates at room temperature for 15 min., protect from light. 6. Detector. FLuc luminescence measured using CCD-based camera (Viewlux). NOTES (numbers refer to Sequence numbers above; values are from representative experiments) 6. Luminescence Read: Clear filter; Exposure = 1 sec, Gain = High, Speed = Slow, Binning = 2X REFERENCES: 1. Inglese J, Shamu CE and Guy RK, Reporting data from high throughput screening of small molecule libraries, Nature Chemical Biology, 2007, 3(8): 438-441. doi.org/10.1038/nchembio0807-438 2. Yasgar A, Shinn P, Jadhav A, Auld DS, Michael S, Zheng W, Austin CP, Inglese J and Simeonov A, Compound Management for Quantitative High-Throughput Screening. J. Assoc. Lab. Auto., 2008, 13: 79-89. doi: 10.1016/j.jala.2007.12.004
% is scaled to controls: 0 for no effect and ±100 for the full control effect; potency is read from the fitted curve at half-maximal effect; tags tell the direction and shape of the fitted curve.

Compound | Potency | activity change, negative = cytotoxicity
Cc1c(CCNC(=O)c2ccc(Br)o2)sc2nc(-c3ccc(F)cc3)nn12 | inconclusive: 39.8 µM [cytotoxic, single point] | 
COc1ccc(CCCc2nnc(SCC(=O)Nc3ccc(C)cc3)o2)cc1 | inconclusive: 39.8 µM [cytotoxic, single point] | 
Cc1ccc(C)c(N2CCN(CCCNC(=O)c3cnn(-c4ccccc4Cl)c3C3CCN(C(=O)OC(C)(C)C)CC3)CC2)c1 | inconclusive: 39.8 µM [cytotoxic, single point] | 
CCCCNC(=O)c1cccc(-n2c(C)nc3cccnc32)c1 |  | inactive: -1.36%
CC(NC(=O)C1CCN(c2nc3ccccc3nc2C(F)(F)F)CC1)c1ccccc1 (stereo not given) |  | inactive: 7.2%
COc1ccc2nc(N(Cc3cccnc3)C(=O)C3CCCCC3)sc2c1 | inconclusive: 39.8 µM [cytotoxic, single point] | 
COc1ccc(N2CCN(CCCNC(=O)Cn3c(-c4cccs4)cc4ccccc43)CC2)cc1 |  | inactive: 2.11%
COc1ccc(NC(=O)c2c(NC(=O)c3ccc(Br)cc3)sc3c2CCCC3)cc1 | inconclusive: 39.8 µM [cytotoxic, single point] | 
COc1ccc(-c2nnc(SCc3cccc(Cl)c3)o2)cc1 | inconclusive: 39.8 µM [rising, partial curve, poor fit] | 
COc1cc(NC(=O)c2cn(C3CCCC3)c(=O)c3c2c2ccccc2n3C)cc(OC)c1OC | inconclusive: 39.8 µM [cytotoxic, single point] | 
Cc1ccc(O)c(NC(=O)c2cc(-c3ccccc3O)no2)c1 |  | inactive: -1.48%
Cc1ccc(Cl)cc1N(C)C(=O)c1cn(C2CCCCC2)c(=O)c2c1c1ccccc1n2C | inconclusive: 31.6 µM [cytotoxic, partial curve, poor fit] | 
CCOC(=O)c1ccc(NC2SC(=O)N(Cc3cccc(C(=O)O)c3)C2=O)cc1 (stereo not given) | inconclusive: 7.08 µM [cytotoxic, partial curve, poor fit] | 
CCOc1ccc(Cn2c(CNS(=O)(=O)c3cccc(Cl)c3)nc3cccnc32)cc1 |  | inactive: 6.31%
COc1ccccc1/C=C/c1nc(C#N)c(NCCc2ccccc2)o1 | inconclusive: 1.58 µM [rising, partial curve, poor fit] | 
CCOc1ccc(N(CC)S(=O)(=O)N2CCCC(C(=O)Nc3cc(Cl)ccc3OC)C2)cc1 (stereo not given) | inconclusive: 5.62 µM [rising, full curve, poor fit] | 
Cc1cccc(OCCn2c(SCC(=O)O)nc3ccccc32)c1 |  | inactive: -2.5%
COc1ccc(CNS(=O)(=O)c2ccc(-c3cnc(C4CC4)o3)cc2)cc1 | inconclusive: 25.1 µM [cytotoxic, partial curve] | 
CCCCN1C(C(=O)c2ccccc2)=C(OC(C)=O)c2ccccc2S1(=O)=O | inconclusive: 31.6 µM [cytotoxic, single point] | 
CCN(CCCNC(=O)CSc1cc(=O)n(CC)c2ccccc12)c1cccc(C)c1 | inconclusive: 25.1 µM [cytotoxic, partial curve, poor fit] | 

Compound | Potency | activity change, negative = cytotoxicity
COc1ccc(NC(=O)c2c(NCc3sccc3C)sc3c2CCCCC3)c(OC)c1 | inconclusive: 39.8 µM [cytotoxic, single point] | 
Cc1c(-c2nsc(NC(=O)c3cccc(Cl)c3)n2)nnn1-c1ccccc1C(F)(F)F | inconclusive: 39.8 µM [cytotoxic, single point] | 
CCOc1ccc(CCNC(=O)CCc2c(C)nc3cc(-c4ccccc4OC)nn3c2C)cc1 |  | inactive: -23.3%
CCCOc1ccc(C(=O)Nc2ccc(Cl)c(-c3nc4ncccc4o3)c2)cc1 | inconclusive: 35.5 µM [cytotoxic, partial curve, poor fit] | 
Cc1ccc(-c2noc(CCCC(=O)NCc3ccco3)n2)cc1 |  | inactive: -3.11%
COc1cc(C(=O)N2CCc3c([nH]c4ccccc34)C2c2ccc(C)cc2)cc(OC)c1OC (stereo not given) | inconclusive: 22.4 µM [cytotoxic, partial curve, poor fit] | 
Nc1c(-c2nc(-c3ccc4c(c3)OCO4)cs2)c2ccccn2c1C(=O)c1ccccc1 | inconclusive: 11.2 µM [cytotoxic, partial curve] | 
COc1ccc(CNCCC(c2ccccc2)c2ccc3c(c2)OCO3)cc1 (stereo not given) | inconclusive: 28.2 µM [cytotoxic, single point] | 
Cc1cc(C(=O)NCc2ccc(Cl)cc2)c2c(C)nn(-c3ccccc3)c2n1 | inconclusive: 7.08 µM [cytotoxic, full curve, poor fit] | 
Cc1ccc(-c2nnc3c4ccccc4c(C)nn23)cc1NC(=O)c1ccccc1Cl | inconclusive: 0.141 µM [rising, full curve] | 
Cc1ccc(S(=O)(=O)c2nnn3c2nc(N2CCCC2)c2sccc23)cc1 |  | inactive: 3.34%
Cc1ccc(C)c(Cn2c(SCC(=O)NCc3ccccc3)nc3ccccc32)c1 | inconclusive: 39.8 µM [cytotoxic, single point] | 
O=C(Cn1cc(S(=O)(=O)Cc2ccccc2F)c2ccccc21)Nc1ccc(F)c(Cl)c1 | inconclusive: 39.8 µM [cytotoxic, single point] | 
O=C(NCCO)c1ccc(-c2nnc(Nc3ccc(OC(F)(F)Cl)cc3)c3ccccc23)cc1 | inconclusive: 39.8 µM [cytotoxic, single point] | 
COc1ccccc1NC(=O)c1cc2cc3ccc(OC)c(Cl)c3nc2s1 | inconclusive: 39.8 µM [cytotoxic, single point] | 
COc1ccc2ncc3c(-c4ccc(C)c(C)c4)nn(CC(=O)Nc4ccccc4)c3c2c1 | inconclusive: 31.6 µM [cytotoxic, single point] | 
CCc1ccc(C(=O)c2cn(CC(=O)Nc3ccc4c(c3)OCO4)c3ccc(Cl)cc3c2=O)cc1 |  | inactive: -15.8%
COc1ccccc1C(=O)NC(=O)Nc1ccc(-c2cc(C(F)(F)F)nn2-c2ccccc2)cc1 | inconclusive: 20 µM [cytotoxic, partial curve] | 
CCOc1ccc(CCNC(=O)c2c3c(nc4ccccc24)C(=O)N(C2CCCCC2)C3)cc1 | inconclusive: 35.5 µM [cytotoxic, single point] | 
Cc1ccc(S(=O)(=O)N2CCCc3cc(NC(=O)c4ccc(Cl)cc4)ccc32)cc1 | inconclusive: 8.91 µM [cytotoxic, partial curve, poor fit] | 

Compound | Potency | activity change, negative = cytotoxicity
CCN(CC)c1ccc(NC(=O)C2CCN(S(=O)(=O)c3c(C)noc3/C=C/c3ccccc3F)CC2)c(C)c1 | inconclusive: 20 µM [cytotoxic, single point] | 
Cc1cccc(NC(=O)CN2C(=O)C(c3ccc(F)cc3)=NC23CCCCCC3)c1C | inconclusive: 39.8 µM [cytotoxic, single point] | 
CCOC(=O)c1cc2c(=O)n3ccccc3nc2n(CCOC)c1=NC(=O)c1c(-c2c(F)cccc2Cl)noc1C | inconclusive: 5.01 µM [cytotoxic, partial curve] | 
COc1ccccc1CN1CCC(CNC(=O)c2cnn(-c3cccc(Cl)c3)c2C2CCN(C(=O)OC(C)(C)C)CC2)CC1 | inconclusive: 39.8 µM [cytotoxic, single point] | 
O=C(Nc1ccc2oc(-c3ccc(Br)cc3)nc2c1)c1cc2ccccc2o1 |  | inactive: 12.4%
COc1cccc(CNCc2c(C(=O)O)n(Cc3ccc(C)cc3)c3cc(C)ccc23)c1OC | inconclusive: 25.1 µM [cytotoxic, partial curve, poor fit] | 
CCC1CCCCN1CCCNC(=O)c1ccc2c(c1)N(Cc1cccc(Cl)c1)C(=O)c1ccccc1S2(=O)=O (stereo not given) | inconclusive: 39.8 µM [cytotoxic, single point] | 
COc1ccc(C)cc1NC(=O)NCCn1nnc2cc(S(=O)(=O)N(C)C)ccc21 | inconclusive: 7.08 µM [cytotoxic, single point] | 
COc1ccc(N2CCN(C(=O)C3CCCN(S(=O)(=O)c4ccc5c(c4)oc(=O)n5C)C3)CC2)cc1 (stereo not given) |  | inactive: -4.88%
COC(=O)c1c(NC(=O)COc2ccc(C(C)C)cc2)sc2c1CCCC2 | inconclusive: 0.0178 µM [cytotoxic, full curve, poor fit] | 
COc1ccccc1CCNC(=O)C1(c2cccs2)CCOCC1 |  | inactive: 14.8%
CCN(CC)S(=O)(=O)c1ccc2c(c1)N(CC(=O)NCCCN1CCN(c3cc(C)ccc3C)CC1)C(=O)CO2 | inconclusive: 25.1 µM [cytotoxic, single point] | 
CN1CCN(C2(CNC(=O)COc3ccc(C(C)(C)C)cc3)CCCCC2)CC1 | inconclusive: 39.8 µM [cytotoxic, single point] | 
Cc1cc(C)cc(NC(=O)C2CCN(c3nc4ccccc4nc3C(F)(F)F)CC2)c1 | inconclusive: 5.01 µM [cytotoxic, partial curve] | 
CCOc1ccc(-n2nc3ccc(NC(=O)COc4ccccc4)cc3n2)cc1 |  | inactive: -6.64%
CC(C)c1ccc(CNCCSc2nnnn2-c2ccccc2)cc1 | inconclusive: 39.8 µM [cytotoxic, single point] | 
CC(C)Oc1ccc(CNC(=O)c2ccc3c(c2)N(C)C(=O)C2CCCCN32)cc1 (stereo not given) | inconclusive: 39.8 µM [cytotoxic, partial curve, poor fit] | 
CCN1CCN(c2cc(C)c3cc(NC(=O)/C=C/c4ccc(OCCC(C)C)cc4)ccc3n2)CC1 | inconclusive: 31.6 µM [cytotoxic, single point] | 
O=C(NCc1cccc(F)c1)c1ccc2nc(CCc3ccccc3)oc2c1 | inconclusive: 0.708 µM [cytotoxic, full curve] | 
Cc1ccc(C)c(CN2C(=O)CSc3ccc(C(=O)NCc4ccccc4)cc32)c1 | inconclusive: 44.7 µM [rising, partial curve, poor fit] | 

— PubChem BioAssay AID1508642 (National Center for Advancing Translational Sciences (NCATS), 2021)
